The list shows a part of the results. Most values come without repeats; read them as rough.
What follows are compounds tested on COLO792 (assay: cell count relative to DMSO control; melanoma cells; higher = more viable cells). Conditions: library dose: standard library concentration; 72 h.
For `N#CC[C@H](C1CCCC1)n1cc(-c2ncnc3[nH]ccc23)cn1` [ruxolitinib] + Oc1cc(-c2nc(-c3ccccc3)[nH]c2-c2ccncc2)ccc1Cl [L779450] (first compound 5 µM, partner dose 1 µM), the cell count was 162%.
`N#CC[C@H](C1CCCC1)n1cc(-c2ncnc3[nH]ccc23)cn1` [ruxolitinib] + CN(c1ncccc1CNc1nc(Nc2ccc3c(c2)CC(=O)N3)ncc1C(F)(F)F)S(C)(=O)=O [PF562271] (first compound 5 µM, partner dose 0.4 µM) gave a cell count of 61.2%.
`Cc1cc(Nc2cc(N3CCN(C)CC3)nc(Sc3ccc(NC(=O)C4CC4)cc3)n2)n[nH]1` [Tozasertib] + COc1ccc(C2=N[C@@H](c3ccc(Cl)cc3)[C@@H](c3ccc(Cl)cc3)N2C(=O)N2CCNC(=O)C2)c(OC(C)C)c1 [Nutlin-3] (first compound 0.03 µM, partner dose 0.5 µM) was tested, and the cell count was 82.9%.
For `CC[C@]1(O)C[C@H]2CN(CCc3c([nH]c4ccccc34)[C@@](C(=O)OC)(c3cc4c(cc3OC)N(C=O)[C@H]3[C@@](O)(C(=O)OC)[C@H](OC(C)=O)[C@]5(CC)C=CCN6CC[C@]43[C@@H]65)C2)C1` [vincristine] + Cc1cc(Nc2cc(N3CCN(C)CC3)nc(/C=C/c3ccccc3)n2)n[nH]1 [ENMD2076] (first compound 0.0005 µM, partner dose 0.2 µM), the cell count was 64.3%.
With `Cc1cc(Nc2cc(N3CCN(C)CC3)nc(Sc3ccc(NC(=O)C4CC4)cc3)n2)n[nH]1` [Tozasertib] + Cc1cc(N2CCOCC2)cc2[nH]c(-c3c(NC[C@@H](O)c4cccc(Cl)c4)cc[nH]c3=O)nc12 [BMS536924] (first compound 0.03 µM, partner dose 1 µM) the cell count was 55.2%.

Reference: the supplement of paper PMC4604168 (melanoma cell lines)
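Also: cells treated in 1,536-well plates, then fixed and DAPI-stained, with nuclei counted from automated high-throughput microscope images.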
